Measured values published in PubChem BioAssay AID1508624 (National Center for Advancing Translational Sciences (NCATS), 2021).
About 120 (0.25%) of roughly 48,000 compounds were called active. About 4% were inconclusive and are not listed. Calls follow the shape of the dose curve; as a rule, active = well fitted activation curve with a large enough effect; inconclusive = small, poorly fitted or top-dose-only effect, or another doubt; inactive = no such curve, though single readings can be large or run the other way. The list shows a part of the results.

test: Primary qHTS for Identification of Small Molecule Activators of Huntingtin-Antisense Promoter Activity; conditions: HEK293 HTT-AS promoter firefly luciferase reporter (activity 0% = vehicle and -100% = no light), 24 h; series mostly up to 57.5 µM; activity change, positive = activation: at the top concentration; also: nearly all actives have a fitted effect of over 55% in size
Method in brief: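 Firefly luciferase readout (Dual-Glo, 10 min RT) after 24 h, 37 °C compound exposure (final up to 57.5 uM) of HEK293 reporter cells cultured 24 h beforehand; PTC124 at 50 uM final as control inhibitor; activity scaled vehicle 0%, zero RLU -100%.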

SMILES	activity change, positive = activation
CCOc1ccc(Cl)cc1C1CC(=O)Nc2cc(OC)c(OC)c(OC)c21 (stereo unspecified)	inactive: 0.346%
NC(=O)C(c1ccccc1)(c1ccccc1)[C@@H]1CCN(CCc2ccc3c(c2)CCO3)C1	inactive: -7.28%
CCOC(=O)C1CCCN(C(=O)Cn2ncc3c([nH]c4ccc(C)cc43)c2=O)C1 (stereo unspecified)	inactive: -17.1%
CCCC(CCC)C(=O)Nc1cccc(-c2cn3cccnc3n2)c1	inactive: 6.12%
Cc1ccc(C)c(N2CCN(C(=O)c3ccc4[nH]c(C)c(C)c4c3)CC2)c1	inactive: -38.5%
CCOC(=O)c1ccc(NC(=O)C2CCN(S(=O)(=O)c3ccc(C)cc3)CC2)cc1	inactive: -8.43%
CC(=O)c1nn(-c2ccc(OC(F)(F)F)cc2)nc1Nc1ccc(C)cc1	inactive: -8.49%
COc1ccccc1CNC(=O)CS(=O)Cc1nc(-c2ccc(OC)c(OC)c2)oc1C (stereo unspecified)	inactive: -16.6%
Cc1ccc(CCNC(=O)c2ccc(CSCc3ccccc3C)o2)cc1	inactive: -17.7%
CCCNCC(O)COc1ccccc1C(=O)CCc1ccccc1 (stereo unspecified)	inactive
CCC1CN(C(=O)N2CCC(C(=O)O)CC2)c2cc(C)ccc2O1 (stereo unspecified)	inactive: -2.59%
COc1ccc(Nc2cc(C)c3cc(NC(=O)Cc4c(F)cccc4Cl)ccc3n2)cc1	inactive: -29.8%
CCN(Cc1ccccc1)C(=O)C1CCN(S(=O)(=O)c2c(C)noc2/C=C/c2ccc(C)cc2)CC1	inactive: -27.4%
COc1ccccc1CNC(=O)c1sc2nc3n(c(=O)c2c1C)CCC3	inactive: 10.2%
CCOc1ccc(CNS(=O)(=O)c2ccc(-c3cc(C(F)(F)F)on3)s2)cc1	inactive: -19.9%
COc1ccc(CCNC(=O)Cn2cc(S(=O)(=O)Cc3cccc(Cl)c3)c3ccccc32)cc1OC	inactive: -17.7%
COc1ccc(-c2noc(CSc3nnc(-c4ccc(Cl)cc4)n3C)n2)cc1OC	inactive: -17%
CCc1cnc2c(c1SCC(=O)Nc1cc(Cl)ccc1OC)c(=O)n(C)c(=O)n2C	inactive: -12.3%
Cc1ccc(Cl)cc1NC(=O)CSc1nc(C)c(C)c(C)c1C#N	inactive: -11.7%
CCOc1ccccc1NC(=O)CSc1nc2c(oc3ccccc32)c(=O)n1Cc1ccco1	inactive: -21.9%
CCOC(=O)c1cnc2c(C(F)(F)F)cccc2c1Nc1cccc(C(=O)OC)c1	inactive: -36.5%
Cc1ccc(CNC(=O)C2CCCN(S(=O)(=O)c3ccc4c(ccn4C)c3)C2)cc1 (stereo unspecified)	inactive: 1.06%
CN1CCN(C(=O)Nc2cccc(Cl)c2)c2cccnc21	inactive: 2.84%
CCCCN(CCCC)CCNC(=O)c1cc(=O)[nH]c2ccc(S(=O)(=O)N3CCCCCC3)cc12	inactive: -9.16%

SMILES	activity change, positive = activation
CC(C)c1ccc(NC(=O)CSc2nc(=O)n(Cc3cccnc3)c3c2CCC3)cc1	inactive: -42.6%
CCc1ccc(CNC(=O)C2CCN(C(=O)N3CC(CC)Oc4ccc(C)cc43)CC2)cc1 (stereo unspecified)	inactive: -31.8%
COc1ccccc1Nc1c2c(nc3ccc(NC(=O)c4cccc(F)c4)cc13)CCCC2	inactive: -93.5%
Cc1cc(C)c(NC(=O)CSc2ncc(S(=O)(=O)c3ccc(C(C)(C)C)cc3)c(=O)[nH]2)c(C)c1	inactive: -6.79%
O=C(NC1CCCC1)c1ccc2c(c1)N(Cc1ccccc1Cl)C(=O)c1ccccc1S2	inactive: -15.7%
Cc1ccc(OCc2nc(-c3ccc(C(=O)NCCc4ccc(S(N)(=O)=O)cc4)cc3)oc2C)cc1	inactive: -26%
COC(=O)c1c(NC(=O)CCCOc2ccccc2C)sc2c1CCC(C)C2 (stereo unspecified)	inactive: 0.545%
COc1ccccc1CNC(=O)CN1C(=O)CCc2cc(S(=O)(=O)N3CCOCC3)ccc21	inactive: -4.48%
COc1ccc(CNC(=O)c2c(Nc3ccccc3C)sc(C(=O)c3ccccc3)c2N)cc1	inactive: -45.4%
COc1cc2[nH]c(=O)n(CCCC(=O)NCc3ccccc3)c(=O)c2cc1OC	inactive: -7.98%
CCc1ccc(NC(=O)CCCc2nc(-c3ccco3)no2)cc1	inactive: -12.3%
CC1CN(C(=O)N2CCC(C(=O)NCc3ccco3)CC2)c2cc(Cl)ccc2O1 (stereo unspecified)	inactive: -5.95%
Cc1ccc(NC(=O)CN2C(=O)CCc3cc(S(=O)(=O)N4CCCCC4)ccc32)cc1N(C)C	inactive: -35.5%
COc1ccc(NC(=O)c2cc(-c3ccccc3O)no2)cc1	inactive: 9.77%
CCOC(=O)c1cccc(N)c1	inactive: 2.4%
CCOc1ccc(NC(=O)CNS(=O)(=O)c2ccc(Br)s2)cc1	inactive: -41.3%
CCOC(=O)c1sc2ccccc2c1S(=O)(=O)N1CCN(c2ccccc2)CC1	inactive: -36.1%
COc1ccc(-c2nc3scc(CCNC(=O)Cc4ccc(F)cc4)n3n2)cc1	inactive: -15.4%
CCC(C)NC(=O)c1ccc2nc(Cc3ccccc3)oc2c1 (stereo unspecified)	inactive: 4.45%
O=C(Nc1cccc2c(=O)cc(-c3nn[nH]n3)oc12)c1ccc(OCCCCc2ccccc2)cc1	inactive: -31.1%
O=C(Nc1cc(Cl)cc(Cl)c1)c1ccc(F)c(S(=O)(=O)NCc2ccccc2Cl)c1	inactive: -31.9%
CCN(c1ccccc1)S(=O)(=O)c1nnc(NC(=O)c2ccco2)s1	inactive: -26.4%
CCOc1ccc(NS(=O)(=O)c2ccc3nc(-c4ccccc4)[nH]c3c2)cc1	inactive: -30.7%
COc1cc(OC)c(Nc2c3c(nc4nc(-c5cccs5)nn24)CCCC3)cc1Cl	inactive: -13.3%

SMILES	activity change, positive = activation
Cc1nn(-c2ccccc2)c2sc(C(=O)Nc3cccc(O)c3)cc12	inactive: 3.38%
Cc1ccc(-n2ncc(C(=O)Nc3c(Cl)cccc3Cl)c2C2CCNCC2)cc1	inactive: 2.1%
Cc1csc2nc(COc3ccccc3NC(=O)c3ccccc3Cl)cc(=O)n12	inactive: -32.4%
COc1cc(CN(C(=O)COc2ccc(Cl)c(C)c2)c2ccccn2)cc(OC)c1OC	inactive: -40.2%
Cc1ccc(-c2nc(CS(=O)(=O)CC(=O)Nc3cc(C)ccc3C)c(C)o2)cc1	inactive: -29.3%
COc1ccc(CCNC(=O)CCCn2nc(C)c3sc4ccccc4c3c2=O)cc1OC	inactive: 0.098%
Cn1c(=O)cc(OCC(=O)NCc2ccc(F)cc2Cl)c2ccccc21	inactive: -15%
CCc1ccccc1Nc1nn2c(=O)c3ccc(C(=O)NC4CCCCC4)cc3nc2s1	inactive: -8.96%
COc1cc(OC)c(NC(=O)c2c3c(nn2C)-c2ccccc2SC3)cc1Cl	inactive: -31.5%
Cc1ccn2c(=O)c(C(=O)NCc3ccccc3Cl)c(O)nc2c1	inactive: 1.7%
COc1ccccc1OCC(O)CN1CCN(CC(=O)Nc2c(C)cccc2C)CC1 (stereo unspecified)	inactive
COC(=O)C(CCSC)NC(=O)c1cc2c(n(-c3ccc(OC)cc3)c1=O)CC(C)(C)CC2=O (stereo unspecified)	inactive: -8.3%
COc1cccc(C(=O)Nc2ccc(NC(=O)c3ccc(C(C)(C)C)cc3)cc2)c1	inactive: -33.5%
COc1cccc2c1Oc1ncccc1N(c1ccc(C(=O)NCc3cccc(C)c3)s1)C2	inactive: -28.1%
CC1(C(=O)Nc2ncc(Cc3ccc(Br)cc3)s2)Cc2ccccc2C(=O)O1 (stereo unspecified)	inactive: -47.1%
Cc1ccc(N2CC(NC(=O)C3CCCCC3)CC2=O)cc1C (stereo unspecified)	inactive: -10.9%
CCN(c1ccccc1)c1nnc(NC(=O)Nc2ccc(C)cc2)s1	inactive: 0.317%
O=C(OCc1cc(=O)n2nc(-c3cccs3)sc2n1)c1ccc(F)cc1	inactive: 5.56%
CCOc1ccc(C(=O)Nc2cccc(-c3nc4cccnc4s3)c2C)cc1OCC	inactive: -18.9%
Cc1ccc2nc3c(cc(C#N)c(=O)n3-c3nnc(SCc4ccccc4Cl)s3)c(=O)n2c1	inactive: -1.52%
COc1ccc(/C=C/c2nc(C#N)c(N3CCC(C)CC3)o2)cc1OC	inactive: -29.1%
COc1ccc(Nc2ncc3c(n2)CCN(Cc2ccc(Br)s2)C3)c(OC)c1	inactive: 19.2%
CSc1ccc(CCNC(=O)c2ccc(-n3c(C)cc4c3CCCC4)cc2)cc1	inactive: 15.2%
CC(=O)N1N=C(c2ccc(C)cc2)CC1c1cn(-c2ccccc2)nc1-c1cccs1 (stereo unspecified)	inactive: -13.7%

SMILES	activity change, positive = activation
Cc1ccc2nc(-c3ccc(Cl)c(NC(=O)c4ccc(Br)o4)c3)oc2c1	inactive: 11%
CSc1nc2c([nH]c3ccccc32)c(=O)n1-c1ccc(C)cc1	inactive: -30%
CSc1ccc(CCNC(=O)c2ccc(CS(=O)Cc3ccc(Cl)cc3)o2)cc1 (stereo unspecified)	inactive: -32.9%
O=C(COCc1cc(-c2ccc3c(c2)OCO3)on1)NCc1ccc(F)cc1	inactive: 0.984%
Cc1ccc(C)c(N2CCN(S(=O)(=O)c3cc(C(=O)Nc4cc(Cl)cc(Cl)c4)ccc3F)CC2)c1	inactive: -3.71%
CCc1ccc2c(c1)NC(c1cccnc1)=NC(c1ccc(C(C)(C)C)cc1)=N2	inactive: -40.2%
Cc1ccc(Cl)cc1NC(=O)c1cc(S(=O)(=O)N2CCCCCC2)cn1C	inactive: -27.6%
Cc1cccc(-c2nc(CSCC(=O)N3CCN(c4cccc(C)c4C)CC3)c(C)o2)c1	inactive: -30.4%
COc1cc(C2CC(=O)Nc3c2c(C)nn3-c2nncc(-c3ccccc3)n2)cc(OC)c1OC (stereo unspecified)	inactive: -11.9%
O=C(Nc1ccccc1Cl)c1cc2c(-c3ccccc3)nn(-c3ccccc3)c2s1	inactive: 3.19%
COc1ccc(CCCc2nnc(SCC(=O)Nc3ccc(C)cc3)o2)cc1C	inactive: -4.68%
Cc1ccc(-n2ncc(C(=O)NC3CCN(Cc4ccccc4)CC3)c2C2CCN(C(=O)OC(C)(C)C)CC2)cc1C	inactive: -24%
O=C(Nc1ccc2nc(SCC(=O)N3CCCc4ccccc43)sc2c1)c1ccc(Cl)cc1	inactive: -30%
CCC(C(=O)NCCc1cc(OC)ccc1OC)n1nc(C)c2c(C)n(-c3ccccc3)nc2c1=O (stereo unspecified)	inactive: -11.6%
CCOc1ccccc1NC(=O)Cn1c(=O)n(Cc2cccs2)c(=O)c2cccnc21	inactive: -22.2%
Fc1ccc(-c2nn(-c3ccc(Cl)cc3)c3c2cnc2ccc(F)cc23)cc1	inactive: -4.42%
COc1ccc(-n2c(=O)c3ccccc3n(Cc3ccccc3Cl)c2=O)cc1	inactive: -22.4%
CC(Sc1nc(=O)cc(N)n1CCc1ccccc1)C(=O)Nc1cccc(Cl)c1 (stereo unspecified)	inactive: -4.16%
Cc1ccc(C)c(CN2C(=O)c3ccccc3S(=O)c3ccc(C(=O)N4CCOCC4)cc32)c1 (stereo unspecified)	inactive: -23.6%
COc1ccc(C(=O)Nc2nc3n(n2)C(c2ccc(Cl)cc2)C=C(c2ccccc2)N3)cc1OC (stereo unspecified)	inactive: -20.2%
COc1ccccc1N1CCN(S(=O)(=O)c2c(C)sc3ncn(CC(=O)Nc4ccc(C)cc4Br)c(=O)c23)CC1	inactive: 13.7%
Cc1ccc(Nc2sc(C(=O)c3ccc(F)cc3)c(N)c2S(=O)(=O)c2ccc(C)cc2)cc1	inactive: -20.4%
Cc1ccc(S(=O)(=O)c2nnn3c2nc(N2CCOCC2)c2sccc23)cc1C	inactive: -12%
CCN(CC)S(=O)(=O)c1ccc2c(c1)c(=O)c(C(=O)N1CCN(c3cccc(Cl)c3)CC1)cn2C	inactive: -7.49%
